Where “and” joins values, the source holds several entries; their conditions need not be identical. Identical values can stand only once. The full ranking holds about 2,900 compounds; the median of “IRF Lucia reporter activity, fold change vs agonist alone” is about 0.9, and the highest 2% start at about 2.8. Some of the results follow.
How the values were obtained:
RAW-Dual [1] = test: IRF Lucia reporter activity, fold change vs agonist alone; higher = enhanced IRF activity; conditions: library stock concentration (final ~1000-fold dilution): 10 mM, agonist: MPLA (TLR4) […]
Procedure, shortened: (§1)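 RAW-Dual macrophages were seeded in DMEM at 50,000 cells/well in 384-well plates, given 50 nL of library stock by pin tool, and given a PRR agonist 1 h later. Plates were held at 37 °C, 5% CO2 for 20 hours, after which supernatant was read for IRF by QuantiLuc luminescence and for NF-κB by QuantiBlue absorbance at 620 nm. Reporter activity is expressed as fold change over wells that received agonist alone. A well was called cytotoxic when IncuCyte confluency fell below 70% of agonist controls in both mask sets.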

RAW-Dual [2] = test: IRF Lucia reporter activity, fold change vs agonist alone; cytotoxicity flag (confluency mask): not cytotoxic; higher = enhanced IRF activity
Procedure, shortened: as §1

RAW-Dual [3] = test: IRF Lucia reporter activity, fold change vs agonist alone; cytotoxicity flag (confluency mask): cytotoxic (confluency <70% of control); higher = enhanced IRF activity
Procedure, shortened: as §1

[4] = cytotoxicity flag (confluency mask): not cytotoxic
[5] = agonist: 3'3'-cGAMP (STING) 10 ug/mL

CS(=O)(=O)N1CCN(Cc2cc3nc(-c4cccc5[nH]ncc45)nc(N4CCOCC4)c3s2)CC1
IRF Lucia reporter activity (RAW-Dual [1]; [4]): 0.874

CS(=O)(=O)N1CCN(Cc2cc3nc(-c4cccc5[nH]ncc45)nc(N4CCOCC4)c3s2)CC1 (library stock concentration (final ~1000-fold dilution): 10 mM)
IRF Lucia reporter activity (RAW-Dual [2]; [5]): 0.224
IRF Lucia reporter activity (RAW-Dual [2]; agonist: LPS (TLR4) 0.1 ug/mL): 1.18

O=C(O)Cn1c2c(c3cc(F)ccc31)CN(C(=O)c1cccc3ccccc13)CC2
IRF Lucia reporter activity (RAW-Dual [1]; [4]): 1.03

O=C(O)Cn1c2c(c3cc(F)ccc31)CN(C(=O)c1cccc3ccccc13)CC2 (library stock concentration (final ~1000-fold dilution): 10 mM)
IRF Lucia reporter activity (RAW-Dual [2]; [5]): 0.969
IRF Lucia reporter activity (RAW-Dual [2]; agonist: LPS (TLR4) 0.1 ug/mL): 0.879

COc1ccccc1N1CCN(CCN2C(=O)CC3(CCCC3)CC2=O)CC1.Cl.Cl
IRF Lucia reporter activity (RAW-Dual [1]; [4]): 0.94

COc1ccccc1N1CCN(CCN2C(=O)CC3(CCCC3)CC2=O)CC1.Cl.Cl (library stock concentration (final ~1000-fold dilution): 10 mM)
IRF Lucia reporter activity (RAW-Dual [2]; [5]): 1.06
IRF Lucia reporter activity (RAW-Dual [2]; agonist: LPS (TLR4) 0.1 ug/mL): 1.01

Nc1nc(F)nc2c1ncn2C1OC(CO)C(O)C1O (configuration not stated)
IRF Lucia reporter activity (RAW-Dual [1]; [4]): 0.733

Nc1nc(F)nc2c1ncn2C1OC(CO)C(O)C1O (configuration not stated) (library stock concentration (final ~1000-fold dilution): 10 mM)
IRF Lucia reporter activity (RAW-Dual [2]; [5]): 1.01
IRF Lucia reporter activity (RAW-Dual [2]; agonist: LPS (TLR4) 0.1 ug/mL): 0.922

COC(=O)C1=C(C)NC(C)=C(C(=O)OC2CCCN(Cc3ccccc3)C2)C1c1cccc([N+](=O)[O-])c1.Cl (configuration not stated) (library stock concentration (final ~1000-fold dilution): 10 mM)
IRF Lucia reporter activity (RAW-Dual [2]; [5]): 0.184
IRF Lucia reporter activity (RAW-Dual [2]; agonist: LPS (TLR4) 0.1 ug/mL): 1.61

COC(=O)C1=C(C)NC(C)=C(C(=O)OC2CCCN(Cc3ccccc3)C2)C1c1cccc([N+](=O)[O-])c1.Cl (configuration not stated)
IRF Lucia reporter activity (RAW-Dual [1]; [4]): 1.23

CCOC(=O)NC1CCC2C(C1)CC1C(=O)OC(C)C1C2/C=C/c1ccc(-c2cccc(F)c2)cn1 (configuration not stated) (library stock concentration (final ~1000-fold dilution): 10 mM)
IRF Lucia reporter activity (RAW-Dual [2]; [5]): 0.228
IRF Lucia reporter activity (RAW-Dual [2]; agonist: LPS (TLR4) 0.1 ug/mL): 1.09

CC#CC(=O)Nc1ccc2ncnc(Nc3cccc(Br)c3)c2c1 (library stock concentration (final ~1000-fold dilution): 10 mM)
IRF Lucia reporter activity (RAW-Dual [2]; [5]): 0.0133
IRF Lucia reporter activity (RAW-Dual [2]; agonist: LPS (TLR4) 0.1 ug/mL): 0.704

CC#CC(=O)Nc1ccc2ncnc(Nc3cccc(Br)c3)c2c1
IRF Lucia reporter activity (RAW-Dual [1]; [4]): 0.361

CNC1CCC(c2ccc(Cl)c(Cl)c2)c2ccccc21.Cl (configuration not stated)
IRF Lucia reporter activity (RAW-Dual [1]; cytotoxicity flag (confluency mask): cytotoxic (confluency <70% of control)): 1.98

CNC1CCC(c2ccc(Cl)c(Cl)c2)c2ccccc21.Cl (configuration not stated) (library stock concentration (final ~1000-fold dilution): 10 mM)
IRF Lucia reporter activity (RAW-Dual [3]; [5]): 0.552
IRF Lucia reporter activity (RAW-Dual [3]; agonist: LPS (TLR4) 0.1 ug/mL): 1.62

CCC(C(C)O)n1ncn(-c2ccc(N3CCN(c4ccc(OCC5COC(Cn6cncn6)(c6ccc(F)cc6F)C5)cc4)CC3)cc2)c1=O (configuration not stated) (library stock concentration (final ~1000-fold dilution): 10 mM)
IRF Lucia reporter activity (RAW-Dual [2]; [5]): 0.112
IRF Lucia reporter activity (RAW-Dual [2]; agonist: LPS (TLR4) 0.1 ug/mL): 1.7

CCC(C(C)O)n1ncn(-c2ccc(N3CCN(c4ccc(OCC5COC(Cn6cncn6)(c6ccc(F)cc6F)C5)cc4)CC3)cc2)c1=O (configuration not stated)
IRF Lucia reporter activity (RAW-Dual [1]; [4]): 2.4

CCCCc1ncc(/C=C(\Cc2cccs2)C(=O)O)n1Cc1ccc(C(=O)O)cc1.CS(=O)(=O)O (library stock concentration (final ~1000-fold dilution): 10 mM)
IRF Lucia reporter activity (RAW-Dual [2]; [5]): 0.954
IRF Lucia reporter activity (RAW-Dual [2]; agonist: LPS (TLR4) 0.1 ug/mL): 1.27

CCCCc1ncc(/C=C(\Cc2cccs2)C(=O)O)n1Cc1ccc(C(=O)O)cc1.CS(=O)(=O)O
IRF Lucia reporter activity (RAW-Dual [1]; [4]): 1.04

O=C(O)C(Cc1c[nH]c2ccccc12)N1C(=O)c2ccccc2C1=O (configuration not stated) (library stock concentration (final ~1000-fold dilution): 10 mM)
IRF Lucia reporter activity (RAW-Dual [2]; [5]): 1.04
IRF Lucia reporter activity (RAW-Dual [2]; agonist: LPS (TLR4) 0.1 ug/mL): 0.995

O=C(O)C(Cc1c[nH]c2ccccc12)N1C(=O)c2ccccc2C1=O (configuration not stated)
IRF Lucia reporter activity (RAW-Dual [1]; [4]): 0.981

CCc1ccc(Cc2ccc3c(c2)[C@]2(OC3)O[C@H](CO)[C@@H](O)[C@H](O)[C@H]2O)cc1 (library stock concentration (final ~1000-fold dilution): 10 mM)
IRF Lucia reporter activity (RAW-Dual [2]; [5]): 1.08
IRF Lucia reporter activity (RAW-Dual [2]; agonist: LPS (TLR4) 0.1 ug/mL): 1.35

CCOC(=O)C1=C(C)NC(C)=C(C(=O)OCC)C1c1ccccc1/C=C/C(=O)OC(C)(C)C
IRF Lucia reporter activity (RAW-Dual [1]; [4]): 0.779

CCOC(=O)C1=C(C)NC(C)=C(C(=O)OCC)C1c1ccccc1/C=C/C(=O)OC(C)(C)C (library stock concentration (final ~1000-fold dilution): 10 mM)
IRF Lucia reporter activity (RAW-Dual [2]; [5]): 0.897 and 0.544
IRF Lucia reporter activity (RAW-Dual [2]; agonist: LPS (TLR4) 0.1 ug/mL): 1.07 and 0.643

O=C(O)c1ccc(CSc2nc(-c3ccccc3)cc(N3CCN(c4ccccc4Cl)CC3)n2)cc1 (library stock concentration (final ~1000-fold dilution): 10 mM)
IRF Lucia reporter activity (RAW-Dual [2]; [5]): 0.715
IRF Lucia reporter activity (RAW-Dual [2]; agonist: LPS (TLR4) 0.1 ug/mL): 1.37

CC1=C(C(=O)Nc2cc3cn[nH]c3cc2F)C(c2ccc(C(F)(F)F)cc2)CC(=O)N1 (configuration not stated) (library stock concentration (final ~1000-fold dilution): 10 mM)
IRF Lucia reporter activity (RAW-Dual [2]; [5]): 1.03
IRF Lucia reporter activity (RAW-Dual [2]; agonist: LPS (TLR4) 0.1 ug/mL): 0.792

CC1=C(C(=O)Nc2cc3cn[nH]c3cc2F)C(c2ccc(C(F)(F)F)cc2)CC(=O)N1 (configuration not stated)
IRF Lucia reporter activity (RAW-Dual [1]; [4]): 0.774

From the supplement of paper PMC10037445
